{"source": "PubChem BioAssay (NCI)", "tested_on": "NCI-H322M lung", "test": "NCI tumour cell line growth inhibition, 48 h", "note": "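1) Cells in 96-well plates. 2) Compound, 48 h, 5 concentrations. 3) Linear interpolation between surrounding doses. 4) Unreached endpoint = highest concentration. Abbreviation: GI50, concentration required for 50% inhibition of growth. The concentration for full growth arrest is given as TGI.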"}
{"molecule": "CCOc1ccc(NC2=C(Cl)C(=O)c3nc(C)ccc3C2=O)cc1", "values": [{"measurement": "GI50", "result": 1680, "unit": "nM"}, {"measurement": "TGI", "result": 3740, "unit": "nM"}]}
